# Source: the supplement of paper PMC8728848
# The list shows a part of the results.
# B1: Gal 7 (Homo sapiens) (protein)
# chain: MSNVPHKSSLPEGIRPGTVLRIRGLVPPNASRFHVNLLCGEEGGSDAALHFNPRLDTSEVVFNSKEGGSWGREESGPGVPFGRGQPFEVLIIASDDGFKAVVGDAQYHHFRHRLPLARVRLVEVGGDVQLDSVRIF
# Columns and labels:
# Assay in all cases: glycan array binding signal (z-score within array); higher = stronger binding
# Conditions in all cases: glycan notation: IUPAC condensed, linker removed; mutation: R74S
# [1] = target: Fuc(a1-3)[Gal3S(b1-4)]GlcNAc
# Procedure, shortened: (§1)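 Glycan array data came from 3228 arrays in the Consortium for Functional Glycomics database, and only arrays with an available protein sequence were kept. Glycan names were put into IUPAC-condensed notation, and columns mapping to the same glycan were averaged. The binding signal is a within-array Z-score, averaged across arrays of one protein sequence run at different concentrations or buffers and across linkers. A negative Z-score can be read as non-binding.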
# [2] = target: Fuc(a1-3)[Gal3S(b1-4)]GlcNAc6S
# Procedure, shortened: as §1
# [3] = target: Fuc(a1-3)[GalNAc(b1-4)]GlcNAc
# Procedure, shortened: as §1
# [4] = target: Fuc(a1-3)[GalNAc(b1-4)]GlcNAc6S
# Procedure, shortened: as §1
# [5] = target: Fuc(a1-4)GlcNAc
# Procedure, shortened: as §1
# [6] = target: Fuc(b1-3)GlcNAc
# Procedure, shortened: as §1
# [7] = target: Gal(a1-2)Gal
# Procedure, shortened: as §1
# [8] = target: Gal(a1-3)Gal
# Procedure, shortened: as §1
# [9] = target: Gal(a1-3)Gal(b1-3)GlcNAc
# Procedure, shortened: as §1
# [10] = target: Gal(a1-3)Gal(b1-3)GlcNAc(b1-2)Man
# Procedure, shortened: as §1
# [11] = target: Gal(a1-3)Gal(b1-3)GlcNAc(b1-2)Man(a1-3)[Gal(a1-3)Gal(b1-3)GlcNAc(b1-2)Man(a1-6)]Man(b1-4)GlcNAc(b1-4)GlcNAc
# Procedure, shortened: as §1
# [12] = target: Gal(a1-3)Gal(b1-3)GlcNAc(b1-3)GalNAc
# Procedure, shortened: as §1
# [13] = target: Gal(a1-3)Gal(b1-3)GlcNAc(b1-6)GalNAc
# Procedure, shortened: as §1
# [14] = target: Gal(a1-3)Gal(b1-3)[Fuc(a1-4)]GlcNAc(b1-2)Man(a1-3)[Gal(a1-3)Gal(b1-3)[Fuc(a1-4)]GlcNAc(b1-2)Man(a1-6)]Man(b1-4)GlcNAc(b1-4)GlcNAc
# Procedure, shortened: as §1
# [15] = target: Gal(a1-3)Gal(b1-4)Glc
# Procedure, shortened: as §1
# [16] = target: Gal(a1-3)Gal(b1-4)GlcNAc
# Procedure, shortened: as §1
# [17] = target: Gal(a1-3)Gal(b1-4)GlcNAc(b1-2)Man
# Procedure, shortened: as §1
# [18] = target: Gal(a1-3)Gal(b1-4)GlcNAc(b1-2)Man(a1-3)[Gal(a1-3)Gal(b1-4)GlcNAc(b1-2)Man(a1-6)]Man(b1-4)GlcNAc(b1-4)GlcNAc
# Procedure, shortened: as §1
# [19] = target: Gal(a1-3)Gal(b1-4)GlcNAc(b1-3)GalNAc
# Procedure, shortened: as §1
# [20] = target: Gal(a1-3)Gal(b1-4)GlcNAc(b1-6)GalNAc
# Procedure, shortened: as §1
# [21] = target: Gal(a1-3)Gal(b1-4)[Fuc(a1-3)]GlcNAc
# Procedure, shortened: as §1
# [22] = target: Gal(a1-3)Gal(b1-4)[Fuc(a1-3)]GlcNAc(b1-2)Man(a1-3)[Gal(a1-3)Gal(b1-4)[Fuc(a1-3)]GlcNAc(b1-2)Man(a1-6)]Man(b1-4)GlcNAc(b1-4)GlcNAc
# Procedure, shortened: as §1
# [23] = target: Gal(a1-3)GalNAc
# Procedure, shortened: as §1
# [24] = target: Gal(a1-3)[Gal(a1-4)]Gal(b1-4)GlcNAc
# Procedure, shortened: as §1
# [25] = target: Gal(a1-4)Gal(b1-3)GlcNAc(b1-2)Man(a1-3)[Gal(a1-4)Gal(b1-3)GlcNAc(b1-2)Man(a1-6)]Man(b1-4)GlcNAc(b1-4)GlcNAc
# Procedure, shortened: as §1
# [26] = target: Gal(a1-4)Gal(b1-4)Glc
# Procedure, shortened: as §1
# [27] = target: Gal(a1-4)Gal(b1-4)GlcNAc
# Procedure, shortened: as §1
# [28] = target: Gal(a1-4)Gal(b1-4)GlcNAc(b1-2)Man(a1-3)[Gal(a1-4)Gal(b1-4)GlcNAc(b1-2)Man(a1-6)]Man(b1-4)GlcNAc(b1-4)GlcNAc
# Procedure, shortened: as §1
# [29] = target: Gal(a1-4)Gal(b1-4)GlcNAc(b1-3)Gal(b1-4)Glc
# Procedure, shortened: as §1
# [30] = target: Gal(a1-4)GlcNAc
# Procedure, shortened: as §1
# [31] = target: Gal(a1-6)Glc
# Procedure, shortened: as §1
# [32] = target: Gal(b1-2)Gal
# Procedure, shortened: as §1
# [33] = target: Gal(b1-3)Gal
# Procedure, shortened: as §1
# [34] = target: Gal(b1-3)Gal(b1-4)GlcNAc
# Procedure, shortened: as §1
# [35] = target: Gal(b1-3)GalNAc
# Procedure, shortened: as §1
# [36] = target: Gal(b1-3)GalNAc(a1-3)[Fuc(a1-2)]Gal(b1-4)Glc
# Procedure, shortened: as §1
# [37] = target: Gal(b1-3)GalNAc(a1-3)[Fuc(a1-2)]Gal(b1-4)GlcNAc
# Procedure, shortened: as §1
# [38] = target: Gal(b1-3)GalNAc(b1-3)Gal
# Procedure, shortened: as §1
# [39] = target: Gal(b1-3)GalNAc(b1-3)Gal(a1-4)Gal(b1-4)Glc
# Procedure, shortened: as §1
# [40] = target: Gal(b1-3)GalNAc(b1-4)Gal(b1-4)Glc
# Procedure, shortened: as §1
# [41] = target: Gal(b1-3)GalNAc(b1-4)[Neu5Ac(a2-3)]Gal(b1-4)Glc
# Procedure, shortened: as §1
# [42] = target: Gal(b1-3)GlcNAc
# Procedure, shortened: as §1
# [43] = target: Gal(b1-3)GlcNAc(a1-3)Gal(b1-4)GlcNAc
# Procedure, shortened: as §1
# [44] = target: Gal(b1-3)GlcNAc(a1-6)Gal(b1-4)GlcNAc
# Procedure, shortened: as §1
# [45] = target: Gal(b1-3)GlcNAc(b1-2)Man
# Procedure, shortened: as §1
binder,measurement,setting,value
B1,glycan array binding signal (z-score),[1],-0.686
same,glycan array binding signal (z-score),[2],0.706
same,glycan array binding signal (z-score),[3],-0.103
same,glycan array binding signal (z-score),[4],-0.03
same,glycan array binding signal (z-score),[5],0.052
same,glycan array binding signal (z-score),[6],0.172
same,glycan array binding signal (z-score),[7],-0.586
same,glycan array binding signal (z-score),[8],-0.55
same,glycan array binding signal (z-score),[9],-0.429
same,glycan array binding signal (z-score),[10],-0.53
same,glycan array binding signal (z-score),[11],0.885
same,glycan array binding signal (z-score),[12],0.122
same,glycan array binding signal (z-score),[13],-0.463
same,glycan array binding signal (z-score),[14],1.56
same,glycan array binding signal (z-score),[15],0.28
same,glycan array binding signal (z-score),[16],-0.056
same,glycan array binding signal (z-score),[17],-0.425
same,glycan array binding signal (z-score),[18],0.018
same,glycan array binding signal (z-score),[19],-0.416
same,glycan array binding signal (z-score),[20],-0.143
same,glycan array binding signal (z-score),[21],-0.359
same,glycan array binding signal (z-score),[22],2.01
same,glycan array binding signal (z-score),[23],-0.024
same,glycan array binding signal (z-score),[24],-0.461
same,glycan array binding signal (z-score),[25],-0.347
same,glycan array binding signal (z-score),[26],-0.09
same,glycan array binding signal (z-score),[27],-0.365
same,glycan array binding signal (z-score),[28],-0.222
same,glycan array binding signal (z-score),[29],-0.663
same,glycan array binding signal (z-score),[30],-0.668
same,glycan array binding signal (z-score),[31],-0.367
same,glycan array binding signal (z-score),[32],-0.04
same,glycan array binding signal (z-score),[33],-0.443
same,glycan array binding signal (z-score),[34],-0.425
same,glycan array binding signal (z-score),[35],-0.37
same,glycan array binding signal (z-score),[36],-0.236
same,glycan array binding signal (z-score),[37],-0.419
same,glycan array binding signal (z-score),[38],0.336
same,glycan array binding signal (z-score),[39],-0.561
same,glycan array binding signal (z-score),[40],-0.228
same,glycan array binding signal (z-score),[41],-0.556
same,glycan array binding signal (z-score),[42],-0.127
same,glycan array binding signal (z-score),[43],-0.366
same,glycan array binding signal (z-score),[44],-0.476
same,glycan array binding signal (z-score),[45],0.331
